These are yes or no findings as the source states them, for the method shown. Some binding calls cover weakened binding; strength is not graded here.
Key:
[1] = biological target: Fused in sarcoma (FUS) (UniProt P35637); experiment: dynamic light scattering; 10 uM FUS mixed with 60-540 nM PAR-PARP1 (60-250 nM PAR-PARP1^Y986H), high FUS-to-PAR-PARP1 molar ratio, no cations added; 25 mM HEPES-NaOH pH 7.5, 200 mM NaCl, 300 mM urea, 1 mM DTT; read-out: hydrodynamic radius of higher-order assemblies; both purified
[2] = biological target: Fused in sarcoma (FUS) (UniProt P35637); experiment: turbidity (OD at 600 nm); as a9, after addition of 30 mM EDTA; both purified
[3] = biological target: Fused in sarcoma (FUS) (UniProt P35637); experiment: dynamic light scattering; low FUS-to-PAR-PARP1 molar ratio (3:1 to 1:1; 4-5 uM FUS with 1.5-1.8 uM PAR-PARP1^WT, or 1.8 uM FUS with 2 uM mutant PAR-PARP1), millimolar cation (2 mM Mn2+, 12.5 mM Mg2+, 7 mM Ca2+, 12 mM Spd3+ or 2.3 mM Spn4+; mutants: 12.5 mM Mg2+); DLS buffer; both purified
[4] = biological target: Fused in sarcoma (FUS) (UniProt P35637); experiment: dynamic light scattering; 10 uM FUS titrated with 50-1000 nM PAR-PARP1 at submillimolar cation (0.5 mM Mg2+, 0.1 mM Mn2+, 0.5 mM Ca2+, 0.4 mM Spd3+ or 0.1 mM Spn4+; mutants: 0.5 mM Mg2+); 25 mM HEPES-NaOH pH 7.5, 200 mM NaCl, 300 mM urea, 1 mM DTT; assemblies only at substoichiometric PAR-PARP1, they disappear at higher PAR-PARP1; both purified
[5] = biological target: Fused in sarcoma (FUS) (UniProt P35637); experiment: turbidity (OD at 600 nm); 1.8 uM FUS with 2 uM PAR-PARP1 (WT, Y986S or Y986H), 4-16 mM Mg2+; 100 mM NaCl, 20 mM HEPES-NaOH pH 7.5, 300 mM urea, 30 C; 1,6-hexanediol (2.8-15%) lowers the turbidity in part; both purified
[6] = biological target: Fused in sarcoma (FUS) (UniProt P35637); experiment: atomic force microscopy; 30 nM PARP1^WT or PARP1^Y986H, 12.5 nM damaged pBR, 0.3 mM NAD+, 5 mM MgCl2, then 400 nM FUS, 37 C; 12.5 mM HEPES-NaOH pH 8.0, 12.5 mM NaCl, 1 mM DTT, 100 mM urea; adsorbed on mica with putrescine, imaged in air; both purified
[7] = biological target: Fused in sarcoma (FUS) (UniProt P35637); experiment: dynamic light scattering; as a3, after addition of EDTA (5-30 mM) to the cation-stabilised FUS-PAR-PARP1 mixture; both purified
[8] = biological target: Fused in sarcoma (FUS) (UniProt P35637); experiment: condition: only without added cations (10 uM FUS, 60-540 nM PAR-PARP1); dynamic light scattering; 10 uM FUS mixed with 60-540 nM PAR-PARP1 (60-250 nM PAR-PARP1^Y986H), high FUS-to-PAR-PARP1 molar ratio, no cations added; 25 mM HEPES-NaOH pH 7.5, 200 mM NaCl, 300 mM urea, 1 mM DTT; read-out: hydrodynamic radius of higher-order assemblies; both purified

Chains of the proteins cited; added tags and fusions are not shown. Lines headed by an entry give the natural chain unless they say otherwise; changes in a name come on top.
UniProt P35637: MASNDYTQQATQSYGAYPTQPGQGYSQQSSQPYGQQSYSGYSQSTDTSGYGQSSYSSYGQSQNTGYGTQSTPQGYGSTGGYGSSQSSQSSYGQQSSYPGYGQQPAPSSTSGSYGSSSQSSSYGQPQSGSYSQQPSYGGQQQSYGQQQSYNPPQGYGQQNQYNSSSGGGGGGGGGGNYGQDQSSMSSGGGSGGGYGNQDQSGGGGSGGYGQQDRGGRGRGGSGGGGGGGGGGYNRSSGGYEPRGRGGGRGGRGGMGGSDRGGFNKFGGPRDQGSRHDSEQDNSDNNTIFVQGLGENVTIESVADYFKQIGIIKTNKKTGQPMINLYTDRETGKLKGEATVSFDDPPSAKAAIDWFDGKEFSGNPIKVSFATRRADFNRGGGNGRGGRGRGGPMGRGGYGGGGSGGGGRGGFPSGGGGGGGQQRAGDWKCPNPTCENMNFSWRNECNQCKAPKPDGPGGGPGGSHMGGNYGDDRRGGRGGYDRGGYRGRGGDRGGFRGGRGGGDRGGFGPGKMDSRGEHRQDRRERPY
UniProt P09874: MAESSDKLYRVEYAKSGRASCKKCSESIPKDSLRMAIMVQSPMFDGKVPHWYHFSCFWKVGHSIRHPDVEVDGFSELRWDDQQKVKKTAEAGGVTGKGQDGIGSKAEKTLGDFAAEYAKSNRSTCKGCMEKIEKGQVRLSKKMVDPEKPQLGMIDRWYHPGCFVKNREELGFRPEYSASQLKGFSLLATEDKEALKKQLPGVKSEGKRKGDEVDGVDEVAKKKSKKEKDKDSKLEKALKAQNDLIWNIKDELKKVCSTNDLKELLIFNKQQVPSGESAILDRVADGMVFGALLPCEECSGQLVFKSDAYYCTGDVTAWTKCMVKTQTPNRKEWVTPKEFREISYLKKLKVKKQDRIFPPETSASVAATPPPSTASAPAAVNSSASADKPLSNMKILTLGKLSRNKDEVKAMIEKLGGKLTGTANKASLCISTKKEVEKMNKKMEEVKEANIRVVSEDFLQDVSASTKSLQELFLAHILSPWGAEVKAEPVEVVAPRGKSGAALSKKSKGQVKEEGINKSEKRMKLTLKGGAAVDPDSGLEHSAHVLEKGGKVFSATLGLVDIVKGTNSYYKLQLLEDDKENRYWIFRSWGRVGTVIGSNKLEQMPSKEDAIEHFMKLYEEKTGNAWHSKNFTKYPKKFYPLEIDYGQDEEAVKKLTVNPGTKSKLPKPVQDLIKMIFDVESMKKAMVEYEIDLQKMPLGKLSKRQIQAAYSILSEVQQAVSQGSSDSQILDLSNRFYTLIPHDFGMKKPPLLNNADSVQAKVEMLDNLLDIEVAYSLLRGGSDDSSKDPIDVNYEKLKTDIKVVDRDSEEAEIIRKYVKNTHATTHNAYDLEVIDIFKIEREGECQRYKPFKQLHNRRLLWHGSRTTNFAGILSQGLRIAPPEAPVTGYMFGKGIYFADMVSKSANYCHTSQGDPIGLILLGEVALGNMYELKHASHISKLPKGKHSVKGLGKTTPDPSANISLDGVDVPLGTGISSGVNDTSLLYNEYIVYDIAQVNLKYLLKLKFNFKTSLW

Which binding [1] does the source give for “poly(ADP-ribosyl)ated PARP1^Y986S, (short PAR)-PARP1^Y986S (from UniProt P09874 1-1014) (enzyme)” here?
Its binding is “no binding (condition: without added cations)”.

What about the binding [2] of the same substance?
Its binding is “no binding (condition: with 30 mM EDTA)”.

What about the binding [3] of the same substance?
The binding was “binds”.

And the binding [4]?
The binding was “binds”.

What about the binding [5] of the same substance?
The binding was “binds”.

For “poly(ADP-ribosyl)ated wild-type PARP1 (PAR-PARP1^WT) (from UniProt P09874 1-1014) (enzyme)”, which binding [6] is on record?
Its binding is “binds”.

What about the binding [7] of the same substance?
The binding was “no binding (condition: with EDTA (5-30 mM))”.

And the binding [2]?
Its binding is “no binding (condition: with 30 mM EDTA)”.

What about the binding [3] of the same substance?
The binding was “binds”.

And the binding [4]?
The binding was “binds”.

And the binding [8]?
The binding was “no binding”.

What about the binding [5] of the same substance?
The binding was “binds”.
